# The shares of active, inactive and inconclusive entries below differ from those in the screen. For part of these data: A potency beside an inconclusive call is a rough fit, not a confirmed value. Activity calls are given as the source filed them. Unless noted, calls come from the whole dose curve; as a rule, active = well fitted curve in the direction sought with a large enough effect; inconclusive = small, poorly fitted or top-dose-only effect, or another doubt; inactive = no such curve, though single readings can be large; an effect the other way counts as inactive or inconclusive.
# How the values were obtained:
# [1] = biological target: Cytochrome P450 2C19 (Homo sapiens) (UniProt P33261); assay: qHTS Assay for Inhibitors and Substrates of Cytochrome P450 2C19 (AID 899); details: recombinant CYP2C19, luciferin-H EGE luminescence; activity, negative = inhibition: at 11.4 µM (top of the series); note: nearly all actives have a fitted effect of over 60% in size; note: potency is the fitted concentration of half-maximal effect; for activity, negative = inhibition: top concentration of the series differs between compounds; % is set by controls: 0 for no effect and ±100 for the full control effect
# Sequence of UniProt P33261 (P33261 whole entry, looked up): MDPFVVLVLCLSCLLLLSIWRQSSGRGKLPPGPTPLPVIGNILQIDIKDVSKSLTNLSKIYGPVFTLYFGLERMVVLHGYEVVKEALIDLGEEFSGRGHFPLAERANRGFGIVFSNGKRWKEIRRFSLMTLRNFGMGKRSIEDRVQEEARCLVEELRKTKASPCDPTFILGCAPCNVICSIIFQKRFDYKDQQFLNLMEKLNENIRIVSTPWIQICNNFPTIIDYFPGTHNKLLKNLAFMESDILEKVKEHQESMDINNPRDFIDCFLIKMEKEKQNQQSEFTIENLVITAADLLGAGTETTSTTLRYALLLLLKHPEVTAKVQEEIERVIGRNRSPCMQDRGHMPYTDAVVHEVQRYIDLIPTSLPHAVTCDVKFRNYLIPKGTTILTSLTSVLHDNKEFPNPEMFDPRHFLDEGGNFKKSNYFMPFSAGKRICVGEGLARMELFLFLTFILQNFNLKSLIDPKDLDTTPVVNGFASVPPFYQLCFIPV
# Summary of the method: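 Human CYP2C19 (5nM) with Luciferin-H EGE at 10uM (its KM) in 50mM KPO4 was preincubated with compound for 10 min at 37C. NADPH regeneration started a 60 min 37C reaction. Luciferin was read by luminescence, normalized to 57uM ketoconazole.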
# [2] = qHTS Assay for Identification of Small Molecule Antagonists for NFkB Signaling Pathway (AID 895; active = well fitted inhibition curve with a large enough effect in the signal ratio, with a control signal flat, not every such curve was filed as active; inconclusive = small, poorly fitted or top-dose-only effect, or effect the other way, or a change in a side signal; the % refers to the signal ratio; note: % is set by controls: 0 for no effect and ±100 for the full control effect); details: NFkB beta-lactamase reporter cells, FRET ratio 460/530, stimulated with 10 pM TNF alpha; activity change, negative = inhibition: at 38.3 µM (top of the series)
# Summary of the method: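 NFkB-bla ME-180 cervical carcinoma cells with beta-lactamase reporter under NFkB response element; compounds added, then TNF alpha at 10 pM final (EC50), 5 h at 37 C. LiveBLAzer substrate 2 h, room temperature; emission 460/530 nm at 405 nm excitation.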
# [3] = qHTS Assay for Identification of Small Molecule Antagonists for Thrombopoietin (TPO) Signaling Pathway (AID 918); details: TPO-dependent cell signaling reporter, antagonist mode; activity change, negative = inhibition: at 38.5 µM (top of the series); note: nearly all actives have a fitted effect of over 60% in size
# Summary of the method: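 Murine Ba/F3 cells stably expressing human TPO receptor and a Glycoprotein IIb promoter–luciferase reporter were IL-3-starved overnight, treated with compounds plus TPO (26 pM final, its EC50) for 24 hrs at 37 C, then read by luminescence.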
# [4] = biological target: Muscarinic acetylcholine receptor M1 (Rattus norvegicus) (UniProt P08482); assay: qHTS Assay for Antagonists of Acetylcholine Muscarinic M1 Receptor: Measurement of IP-One Response (AID 944); note: potency is the fitted concentration of half-maximal effect; nearly all actives have a fitted effect of over 75% in size
# Sequence of UniProt P08482 (P08482 whole entry, looked up): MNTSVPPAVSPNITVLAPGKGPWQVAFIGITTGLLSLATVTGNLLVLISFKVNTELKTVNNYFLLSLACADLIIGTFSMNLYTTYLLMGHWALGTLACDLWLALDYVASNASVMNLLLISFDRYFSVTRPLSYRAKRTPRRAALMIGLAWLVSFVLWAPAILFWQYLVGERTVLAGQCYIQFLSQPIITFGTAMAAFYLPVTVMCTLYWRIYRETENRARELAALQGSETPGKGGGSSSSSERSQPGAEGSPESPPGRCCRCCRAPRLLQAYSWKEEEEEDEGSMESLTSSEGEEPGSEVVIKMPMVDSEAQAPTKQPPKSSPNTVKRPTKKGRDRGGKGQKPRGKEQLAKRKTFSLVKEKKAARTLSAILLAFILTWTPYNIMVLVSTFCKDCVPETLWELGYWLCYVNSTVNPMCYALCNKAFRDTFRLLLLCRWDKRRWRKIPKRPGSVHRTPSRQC
# [5] = qHTS Assay for Identification of Small Molecule Agonists for Thrombopoietin (TPO) Signaling Pathway (AID 917); note: % is set by controls: 0 for no effect and ±100 for the full control effect
# Summary of the method: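 Murine Ba/F3 cells expressing human TPO receptor and GPIIb-promoter luciferase, IL-3-starved overnight, given compound plus TPO at 26 pM (EC50). After 24 h at 37 C, 5% CO2, luminescence read.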
# [6] = Confirmation and Secondary Assay for Modulators of Hemoglobin Beta Chain Splicing at IVS2 705 locus (AID 930); details: HeLa EGFP-705 splicing reporter, GFP fluorescence, 48 h; at 46.1 µM (top of the series) unless noted;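 note: HeLa cells stably expressing the EGFP-705 splicing reporter; GFP fluorescence per well restored by corrected splicing of the IVS2-705 intron in EGFP; % of control where 0% means no effect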
# Summary of the method: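 Assay measures total GFP intensity per well in HeLa EGFP-705 cells after 2 days with compound; mis-splicing normally truncates EGFP, so fluorescence indicates corrected splicing.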
# Tags give direction and shape of the fitted curve.
smiles,measurement,setting,value
Oc1c(Br)cc(Br)cc1CN(Cc1cc(Br)cc(Br)c1O)C1CCCCC1,Potency,[1],active: 316 nM
CO[C@H]1COC(=O)CCC[C@H](C)[C@@H](OC)COC(=O)C/C=C\[C@@H]1C,Potency,[1],"inconclusive: 158 nM [inhibitor, full curve]"
CCC[C@@H]1O[C@@H]2C[C@@H]3[C@@H]4CCC5=CC(=O)C=C[C@@]5(C)[C@H]4[C@H](O)C[C@@]3(C)[C@@]2(C(=O)CO)O1,Potency,[1],inactive
CO[C@H]1COC(=O)C/C=C\[C@@H](C)[C@H](OC)COC(=O)[C@H]2CCCN2C(=O)C/C=C\[C@@H]1C,Potency,[1],"inconclusive: 3160 nM [inhibitor, partial curve, poor fit]"
COC(=O)C1=C(C)N(Cc2ccccc2)C2=C3C(=O)N(c4ccccc4)C(=O)C3[C@@](O)(C(=O)OC)C(=O)N2C1c1ccccc1 (stereo not given in full),Potency,[1],inactive
CC[C@H](C(=O)c1cccs1)C(O)(C(F)(F)F)C(F)(F)F,Potency,[1],"inconclusive: 2000 nM [inhibitor, partial curve, poor fit]"
CCCc1cc2c(n1Cc1ccc(OC)cc1)C(C)C1CN(C(=O)c3ccccc3)C(C)(C(=O)OC)C21 (stereo not given),Potency,[1],"inconclusive: 6.3 nM [inhibitor, full curve, poor fit]"
CCCCCCC1=Cc2cc(OC)c(OC)cc2C(C(C(C)=O)C(=O)OC)O1 (stereo not given),Potency,[1],active: 3160 nM
C=CCOC(=O)/C=C/NC(=O)/C=C/C=C/CCCCCCCC(C)O (stereo not given),Potency,[1],inactive
CO[C@@H]1COC(=O)[C@H](C)NC(=O)C/C=C\[C@@H](C)[C@@H](NS(=O)(=O)c2ccc(C)cc2)COC(=O)C/C=C\[C@@H]1C,Potency,[1],inactive
CC1(C)Oc2cc3c(cc2O1)OC(C)(C)O3,Potency,[1],inactive
CCCNC(=O)OC[C@@H]1O[C@H](CCO/N=C(\C)CCN2CCc3nc(-c4ccccc4)c(-c4ccccc4)cc3C2)C=C[C@@H]1Oc1ccc(OC)cc1,Potency,[1],"inconclusive: 316 nM [inhibitor, partial curve]"
C#CCCCO/N=C1/C[C@@H](O)[C@@H](O)[C@@H]2[C@H]3C(=O)N(c4ccc(F)cc4F)C(=O)[C@@H]3CC[C@@H]12,Potency,[1],"inconclusive: 6.3 nM [inhibitor, full curve, poor fit]"
CC(C)C[C@@H](CC(=O)N[C@@H](CCC(=O)O)CC(=O)O)NC(=O)[C@@H]1CCCC[C@H]1NC(=O)C[C@@H](NC(=O)C[C@H](CO)NC(=O)[C@@H]1CNCC[C@H]1N)C(C)C,Potency,[1],inactive
Cc1ccc(S(=O)(=O)N[C@H]2COC(=O)C/C=C\[C@@H](C)COC(=O)C/C=C\[C@@H]2C)cc1,Potency,[1],"inconclusive: 1580 nM [inhibitor, partial curve]"
O=C(O)[C@@H]1CCCN[C@H]1C(=O)O,Potency,[2],inactive
same,"activity change, negative = inhibition",[3],inconclusive: -10.3% [phenotype inactive]
same,Potency,[4],"inconclusive: 17800 nM [inhibitor, partial curve, poor fit]"
COC(=O)[C@@]1(Cc2ccc(F)cc2)[C@H]2c3cc(C(=O)N4CCCC4)n(Cc4cccc5ccccc45)c3C[C@H]2CN1C(=O)c1ccccc1,Potency,[1],"inconclusive: 7940 nM [inhibitor, full curve, poor fit]"
Clc1ccc(CO[C@@H](Cn2ccnc2)c2ccc(Cl)cc2Cl)cc1,Potency,[1],active: 63.1 nM
CC[C@@H]1CC(=O)N(SC[C@H](N)C(=O)O)C1=O,Potency,[1],inactive
CN[C@@H](c1ccncc1)[C@@H](NC)c1ccncc1,Potency,[1],"inconclusive: 3160 nM [inhibitor, single point]"
CCOC(=O)Nc1nc(-c2ccccc2)c(C)s1,Potency,[1],"inconclusive: 3980 nM [inhibitor, single point]"
COC(=O)[C@@]1(Cc2ccc(OC)cc2)[C@H]2c3cc(C(=O)N4CCCC4)n(Cc4ccc(OC(F)(F)F)cc4)c3C[C@H]2CN1C(=O)c1ccccc1,Potency,[1],"inconclusive: 7940 nM [inhibitor, partial curve, poor fit]"
COc1ccc(OC2C=CC(c3ccccc3)OC2CO)cc1 (stereo not given),"activity, negative = inhibition",[1],inconclusive: -51.7% [inhibitor]
O=C1[C@H]2[C@H]3[C@H](O)[C@H](O)C/C(=N/OCc4ccccc4)[C@H]3CC[C@@H]2C(=O)N1Cc1ccc2c(c1)OCO2,Potency,[1],"inconclusive: 2000 nM [inhibitor, partial curve]"
COc1ccc(O[C@H]2C=C[C@@H](c3ccccc3)O[C@@H]2CO/N=C\[C@@H](C)[C@H](OCc2ccccc2)C(C)C)cc1,Potency,[1],"inconclusive: 3980 nM [inhibitor, single point]"
C/C(CCC(=O)OC[C@@H]1O[C@H](C#Cc2ccccc2)C=C[C@@H]1Oc1ccc(C)cc1)=N/OC[C@@H](O)[C@H]1O[C@H]2OC(C)(C)O[C@H]2[C@@H]1O,Potency,[1],"inconclusive: 6310 nM [inhibitor, single point]"
CN1C[C@@H](C(=O)N[C@]2(C)O[C@]3(O)[C@H]4CCCN4C(=O)[C@H](Cc4ccccc4)N3C2=O)C[C@H]2c3cccc4[nH]cc(c34)C[C@@H]21,Potency,[5],inactive
CC(C)=CCc1c(O)cc(C)oc1=O,activation,[6],inactive: 1.21%

# — PubChem BioAssay (NCATS)
